Experimental data taken from patent US20230233569A1 (Revolution Medicines, Inc., priority 2020, published 2023).
Like-named read-outs stand apart in the source and are kept apart here. For some assays here: At least one structure is not confirmed: it was looked up by name or label, or the drawing left a doubt. Some entries share one result that the patent states for a list of compounds.

What was measured:
AsPC-1 (K-Ras G12D) = test: CellTiter-Glo cell viability assay; format: cell-based, human; details: read-out: AsPC-1 Cell Viability assay data IC50, 5-day treatment
Method: (§1) Determination of Cell Viability in RAS Mutant Cancer Cell Lines
(§2) Protocol: CellTiter-Glo® Cell Viability Assay
(§3) Note—The following protocol describes a procedure for monitoring cell viability of K-Ras mutant cancer cell lines in response to a compound of the invention. Other RAS isoforms may be employed, though the number of cells to be seeded will vary based on cell line used.
(§4) Test compounds (132.5 nL) were directly dispensed into the assay plates containing cells. […] On day 5, assay plates and their contents were equilibrated to room temperature for approximately 30 minutes. […] Luminescence was measured using the PerkinElmer Enspire. Data were normalized by the following: (Sample signal/Avg. DMSO)*100. The data were fit using a four-parameter logistic fit.

NCI-H358 (K-Ras G12C) [1] = test: CellTiter-Glo cell viability assay; format: cell-based, human; details: read-out: H358 Cell Viability assay data IC50, 5-day treatment
Method: as §1, §2, §3, §4

[2] = tested on: K-Ras G12C (NCI-H358 cells); test: Potency assay: pERK (AlphaLISA SureFire or In-Cell Western); format: cell-based, human; details: H358 KRAS G12C
Method: The purpose of this assay is to measure the ability of test compounds to inhibit K-Ras in cells. […] This procedure measures a decrease in cellular pERK in response to test compounds.
NCI-H358 cells were grown and maintained using media and procedures recommended by the ATCC. On the day prior to compound addition, cells were plated in 384-well cell culture plates (40 μl/well) and grown overnight in a 37° C., 5% CO2 incubator. Test compounds were prepared in 10, 3-fold dilutions in DMSO, with a high concentration of 10 mM. On the day of assay, 40 nL of test compound was added to each well of cell culture plate using an Echo550 liquid handler (LabCyte®). Concentrations of test compound were tested in duplicate. After compound addition, cells were incubated 4 hours at 37° C., 5% CO2. Following incubation, culture medium was removed and cells were washed once with phosphate buffered saline.
In some experiments, cellular pERK level was determined using the AlphaLISA SureFire Ultra p-ERK1/2 Assay Kit (PerkinElmer). Cells were lysed in 25 μL lysis buffer, with shaking at 600 RPM at room temperature. […] After a 2-hour incubation in the dark, 5 μL donor mix was added, plate was sealed, and incubated 2 hours at room temperature. Signal was read on an Envision plate reader (PerkinElmer) using standard AlphaLISA settings. […] Signal was plotted vs. the decadal logarithm of compound concentration, and IC50 was determined by fitting a 4-parameter sigmoidal concentration response model.
In other experiments, cellular pERK was determined by In-Cell Western. […] Signal was plotted vs. the decadal logarithm of compound concentration, and IC50 was determined by fitting a 4-parameter sigmoidal concentration response model. […]
In some experiments, cellular pERK level was determined using the AlphaLISA SureFire Ultra p-ERK1/2 Assay Kit (PerkinElmer). […] Signal was read on an Envision plate reader (PerkinElmer) using standard AlphaLISA settings. […] Signal was plotted vs. the decadal logarithm of compound concentration, and IC50 was determined by fitting a 4-parameter sigmoidal concentration response model.

Capan-1 (K-Ras G12V) = test: CellTiter-Glo cell viability assay, 5-day treatment; format: cell-based, human
Method: as §2, §3, §4
as §4, with “nl)” for “nL)”

NCI-H358 (K-Ras G12C) [3] = test: as above; format: cell-based, human
Method: as §2, §3, §4
as §4, with “nl)” for “nL)”

KRAS G12C = KRAS G12C (Homo sapiens, UniProt P01116+P62937, G12C); test: Disruption of BRAF RBD interaction with Ras (FRET / MOA assay, with Cyclophilin A); format: biochemical; details: read-out: KRAS G12C FRET data, IC50
Excerpt: (§5) This protocol may also be executed substituting other Ras proteins or nucleotides.
(§6) The purpose of this biochemical assay was to measure the ability of test compounds to facilitate ternary complex formation between a nucleotide-loaded K-Ras isoform and Cyclophilin A; the resulting ternary complex disrupts binding to a BRAF^RBD construct, inhibiting K-Ras signaling through a RAF effector. Data is reported as IC50 values.
(§7) Compound was present in plate wells as a 10-point 3-fold dilution series starting at a final concentration of 30 μM. After incubation at 25° C. for 3 hours, a mixture of Anti-His Eu-W1024 and anti-GST allophycocyanin was then added to assay sample wells at final concentrations of 10 nM and 50 nM, respectively, and the reaction incubated for an additional 1.5 hours. […] Compounds that facilitate disruption of a K-Ras:RAF complex were identified as those eliciting a decrease in the TR-FRET ratio relative to DMSO control wells.
as §6, with “BRAF^RBDD” for “BRAF^RBD”

KRAS G12D = KRAS G12D (Homo sapiens, UniProt P01116+P62937, G12D); test: as above; format: biochemical
Excerpt: as §5, §6, §7
as §6, with “BRAF^RBDD” for “BRAF^RBD”

KRAS G12S = KRAS G12S (Homo sapiens, UniProt P01116+P62937, G12S); test: as above; format: biochemical
Excerpt: as §5, §6, §7
as §6, with “BRAF^RBDD” for “BRAF^RBD”

KRAS G13C = KRAS G13C (Homo sapiens, UniProt P01116+P62937, G13C); test: as above; format: biochemical
Excerpt: as §5, §6, §7
as §6, with “BRAF^RBDD” for “BRAF^RBD”

NRAS G12C = NRAS G12C (Homo sapiens, UniProt P01111+P62937, G12C); test: as above; format: biochemical
Excerpt: as §5, §6, §7
as §6, with “BRAF^RBDD” for “BRAF^RBD”

NRAS WT = NRAS WT (Homo sapiens, UniProt P01111+P62937); test: as above; format: biochemical
Excerpt: Disruption of B-Raf Ras-Binding Domain (BRAF^RBD) Interaction with K-Ras by Compounds of the Invention (Also Called a FRET Assay or an MOA Assay)
Note—The following protocol describes a procedure for monitoring disruption of K-Ras G12C (GMP-PNP) binding to BRAF^RBD by a compound of the invention. This protocol may also be executed substituting other Ras proteins or nucleotides.
as §6
In assay buffer containing 25 mM HEPES pH 7.3, 0.002% Tween20, 0.1% BSA, 100 mM NaCl and 5 mM MgCl2, tagless Cyclophilin A, His6-K-Ras-GMPPNP, and GST-BRAF^RBD were combined in a 384-well assay plate at final concentrations of 25 μM, 12.5 nM and 50 nM, respectively. Compound was present in plate wells as a 10-point 3-fold dilution series starting at a final concentration of 30 μM. After incubation at 25° C. for 3 hours, a mixture of Anti-His Eu-W1024 and anti-GST allophycocyanin was then added to assay sample wells at final concentrations of 10 nM and 50 nM, respectively, and the reaction incubated for an additional 1.5 hours. […]

NCI-H358 cells = test: 72-hour proliferation assay using CellTiter-Glo; format: cell-based, human; details: read-out: EC50, 72-hour proliferation assay
[4] = H358, K-Ras G12C, read-out: Additional H358 Cell Viability assay data (K-Ras G12C, IC50)
[5] = read-out: KRAS G13C FRET data, IC50
[6] = 5-day treatment, read-out: H358 Cell Viability assay data (K-Ras G12C, IC50)

Sequence of NRAS WT (P01111 whole entry, the tested form may be a part): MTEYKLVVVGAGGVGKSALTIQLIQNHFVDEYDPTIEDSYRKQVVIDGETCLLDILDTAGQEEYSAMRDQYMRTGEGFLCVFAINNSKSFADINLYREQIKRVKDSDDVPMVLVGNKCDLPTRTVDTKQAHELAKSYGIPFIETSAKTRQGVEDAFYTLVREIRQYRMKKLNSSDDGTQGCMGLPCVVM
Sequence of NRAS WT (P62937 whole entry, the tested form may be a part): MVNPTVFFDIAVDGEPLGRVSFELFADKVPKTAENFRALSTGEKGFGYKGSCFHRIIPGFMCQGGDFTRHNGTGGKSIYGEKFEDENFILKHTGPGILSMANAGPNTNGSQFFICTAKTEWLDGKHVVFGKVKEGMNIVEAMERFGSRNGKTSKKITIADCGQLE
Sequence of KRAS G12S (P01116 1-169 isoform P01116-2 G12S limits assumed): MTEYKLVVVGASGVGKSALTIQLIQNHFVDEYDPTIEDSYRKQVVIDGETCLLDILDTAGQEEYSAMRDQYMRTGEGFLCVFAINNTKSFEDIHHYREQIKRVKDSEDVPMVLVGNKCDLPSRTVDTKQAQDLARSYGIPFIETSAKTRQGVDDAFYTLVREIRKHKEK
Sequence of KRAS G12S (P62937 whole entry): as the sequence (P62937 whole entry, the tested form may be a part) above
Sequence of NRAS G12C (P01111 whole entry G12C): as the sequence (P01111 whole entry, the tested form may be a part) above, with G12C counted along it
Sequence of NRAS G12C (P62937 whole entry): as the sequence (P62937 whole entry, the tested form may be a part) above
Sequence of KRAS G12D (P01116 1-169 isoform P01116-2 G12D limits assumed): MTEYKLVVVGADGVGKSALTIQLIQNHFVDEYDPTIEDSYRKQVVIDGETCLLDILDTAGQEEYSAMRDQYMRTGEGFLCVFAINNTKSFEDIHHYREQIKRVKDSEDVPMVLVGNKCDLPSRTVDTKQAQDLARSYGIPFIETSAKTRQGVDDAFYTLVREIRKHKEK
Sequence of KRAS G12D (P62937 whole entry): as the sequence (P62937 whole entry, the tested form may be a part) above

Work on CCn1c(-c2cccnc2[C@H](C)OC)c2c3cc(ccc31)-c1cc(O)cc(c1)C[C@H](NC(=O)[C@H](C(C)C)N(C)C(=O)CN(C)C(=O)[C@H]1CN1)C(=O)N1CCC[C@H](N1)C(=O)OCC(C)(C)C2 (single isomer, unassigned) [Example 42A] yielded an IC50 (AsPC-1 (K-Ras G12D)) of 0.1 to 1 µM.

With CCn1c(-c2cccnc2[C@H](C)OC)c2c3cc(ccc31)-c1cc(O)cc(c1)C[C@H](NC(=O)[C@H](C(C)C)N(C)C(=O)CN(C)C(=O)[C@H]1CN1)C(=O)N1CCC[C@H](N1)C(=O)OCC(C)(C)C2 (single isomer, unassigned) [Example 42B] the IC50 (AsPC-1 (K-Ras G12D)) was 1 to 10 µM and the IC50 (NCI-H358 (K-Ras G12C) [1]) was 0.01 to 0.1 µM.

For CCn1c(-c2cnccc2COC)c2c3cc(ccc31)-c1cc(O)cc(c1)C[C@H](NC(=O)[C@H](C(C)C)N(C)C(=O)CN(C)C(=O)C1CN1)C(=O)N1CCC[C@H](N1)C(=O)OCC(C)(C)C2 (some centres unmarked) [32 A and B], the IC50 (NCI-H358 (K-Ras G12C) [1]) was 1 to 10 µM.

C=CC(=O)N1CCC(C(=O)N(C)C(C(=O)NC2Cc3cccc(c3)-c3ccc4c(c3)c(c(-c3cnccc3C(C)OC)n4CC)CC(C)(C)COC(=O)C3CCCN(N3)C2=O)C(C)C)C1 [Example A115, (2S)—N-[(8S,14S,20P)-22-ethyl-21-{4-[(1S)-1-methoxyethyl]pyridin-3-yl}-18,18-dimethyl-9,15-dioxo-16-oxa-10,22,28-triazapentacyclo[18.5.2.1^2,6.1^10,14.0^23,27]nonacosa-1(26),2,4,6(29),20,23(27),24-heptaen-8-yl]-3-methyl-2-{N-methyl-1-[(3S)-1-(prop-2-enoyl)pyrrolidin-3-yl]formamido}butanamide] showed an EC50 [2] of less than 5 µM, an IC50 (Capan-1 (K-Ras G12V)) of 1 to 10 µM and an IC50 (NCI-H358 (K-Ras G12C) [3]; [4]) of 0.01 to 0.1 µM. For the same compound, the IC50 (KRAS G12C) was 1 to 10 µM, the IC50 (KRAS G12D) was greater than 10 µM and the IC50 (KRAS G12S) was 1 to 10 µM. It also gave an IC50 (KRAS G13C; KRAS G13C) of 1 to 10 µM and an IC50 (KRAS G13C; [5]) of 1 to 10 µM.

CCn1c(-c2cccnc2[C@H](C)OC)c2c3cc(ccc31)-c1cccc(c1)C[C@H](NC(=O)C(COC1CN(C(=O)C#CC(C)(C)N(C)C)C1)C(C)C)C(=O)N1CCC[C@H](N1)C(=O)OCC(C)(C)C2 (stereo partly drawn) [Example A316, (2R)-2-(((1-(4-(dimethylamino)-4-methylpent-2-ynoyl)azetidin-3-yl)oxy)methyl)-N-((6^3S4S)-1^1-ethyl-1^2-(2-((S)-1-methoxyethyl)pyridin-3-yl)-10,10-dimethyl-5,7-dioxo-6^1,6^2,6^3,6^46^5,6^6-hexahydro-1^1H-8-oxa-1(5,3)-indola-(1,3)-pyridazina-2(1,3)-benzenacycloundecaphane-4-yl)-3-methylbutanamide] showed an EC50 [2] of less than 5 µM, an IC50 (Capan-1 (K-Ras G12V)) of 0.01 to 0.1 µM and an IC50 (NCI-H358 (K-Ras G12C) [3]; [6]) of 0.01 to 0.1 µM. For the same compound, the IC50 (NCI-H358 (K-Ras G12C) [3]; [4]) was less than 0.01 µM, the IC50 (KRAS G12C) was 0.01 to 0.1 µM and the IC50 (KRAS G13C; [5]) was 0.1 to 1 µM. It also gave an IC50 (NRAS G12C) of 0.01 to 0.1 µM and an IC50 (NRAS WT) of 0.1 to 1 µM.

Work on CCn1c(-c2cccnc2[C@H](C)OC)c2c3cc(ccc31)-c1csc(n1)[C@@H](OC)[C@H](NC(=O)[C@H](C(C)C)N(C)C(=O)N(C)C)C(=O)N1CCC[C@H](N1)C(=O)OCC(C)(C)C2 [Example A598, (2S)—N-((6^3S,3S,4S,Z)-1^1-ethyl-3-methoxy-1^2-(2-((S)-1-methoxyethyl)pyridin-3-yl)-10,10-dimethyl-5,7-dioxo-6^1,6^2,6^3,6^4,6^5,6^6-hexahydro-1^1H-8-oxa-2(4,2)-thiazola-1(5,3)-indola-6(1,3)-pyridazinacycloundecaphane-4-yl)-3-methyl-2-(1,3,3-trimethylureido)butanamide] yielded an EC50 [2] of less than 5 µM, an IC50 (Capan-1 (K-Ras G12V)) of 0.1 to 1 µM and an IC50 (NCI-H358 (K-Ras G12C) [3]; [6]) of 0.1 to 1 µM. The IC50 (NCI-H358 (K-Ras G12C) [3]; [4]) was 0.01 to 0.1 µM, the IC50 (KRAS G12C) was 0.01 to 0.1 µM and the IC50 (KRAS G13C; KRAS G13C) was 0.1 to 1 µM. For the same compound, the IC50 (KRAS G13C; [5]) was 0.1 to 1 µM and the IC50 (NRAS WT) was 0.1 to 1 µM.

In the case of CC(=O)Nc1cccc(-n2c(=O)n(C3CC3)c(=O)c3c(Nc4ccc(I)cc4F)n(C)c(=O)c(C)c32)c1 [trametinib], the EC50 (NCI-H358 cells) is reported as 0.01 µM.
